# Laboratory results published in PubChem BioAssay (Tox21).
# Where “and” joins values, the source holds several entries; their conditions need not be identical. Equal values may be shown once. Inconclusive results, whose numbers are uncertain, are shown with a selection of clear calls. No potency is given beside an inconclusive call; the fits are too rough. Calls of active or inactive are those of the source. Calls follow the shape of the dose curve; as a rule, active = well fitted cell-killing curve with a large enough effect in the repeat runs; inconclusive = weak or mixed curves, or effect the other way; inactive = flat fitted curve, though single readings scatter.
# Assay: qHTS RealTime-Glo MT Cell Viability Assay in HEK293 cells - 40 hour (AID 1224874); also: nearly all actives have a fitted effect of over 50% in size
# Conditions: RealTime-Glo luminescence; max response: active compounds read low
# From the text: U.S. Tox21 Program National Center for Advancing Translational Sciences [NCATS] NIH Chemical Genomics Center [NCGC] U.S. Environmental Protection Agency [EPA] National Institutes of Environmental Health Sciences [NIEHS] National Toxicology Program [NTP] U.S. Food and Drug Administration [FDA] Tox21 Assay Overview: Measure of cell viability is critical in the cell-base assay. Analysis of cell viability is necessary for the characterization of cell responses to cytotoxic drugs and environmental stress. A RealTime-Glo MT Cell Viability Assay to monitor cell viability in real time of continues cell culture during 40 hours of compound treatment was used to screen Tox21 10K library compounds in Hek293 cells. The RealTime-Glo MT Cell Viability Assay is a nonlytic, homogeneous, bioluminescent method to measure cell viability in real time using a simple, plate-based method. The assay involves adding NanoLuc luciferase and a cell-permeant prosubstrate to cells in culture. Viable cells reduce the proprietary prosubstrate to generate a substrate for NanoLuc luciferase. This substrate diffuses from cells into the surrounding culture medium, where it is rapidly used by the NanoLuc Enzyme to produce a luminescent signal. The signal correlates with the number of viable cells, making the assay well suited for cytotoxicity studies.
# Tox21 Assay Protocol Summary: The mixture of Hek293 cell suspension and reagents were dispensed at 600cells/6 ul/well in 1536-well tissue culture treated black solid bottom plates using a Multidrop dispenser. After the assay plates were incubated at a 37 C/5% CO2 incubator for 5 hours, 23 nL of compounds dissolved in DMSO, positive and negative controls was transferred to the assay plate by a pintool work station. The plates were incubated at 37 C for 40 hours. The luminescence intensity were measured at 0h, 8h, 16h, 24h, 32h and 40h time points using ViewLux plate reader during compound treatment.
# % is scaled to controls: 0 for no effect and ±100 for the full control effect; potency is read from the fitted curve at half-maximal effect; tags tell the direction and shape of the fitted curve.
SMILES,max response,Potency
CCOC(=O)C(c1c(O)c2ccccc2oc1=O)c1c(O)c2ccccc2oc1=O,inactive: 4.14%,
CNCC(=O)c1ccc(O)c(O)c1,inactive: 2.09%,
CCOC(=O)NC(=S)Nc1ccccc1NC(=S)NC(=O)OCC,,"inconclusive [cytotoxic, partial curve]"
C[C@@H]1CN(C2CCC(C#N)(c3ccc(F)cc3)CC2)CC[C@]1(C(=O)O)c1ccccc1 (stereo not given in full),inactive: 2.36%,
CCC/C(=N\OCC)C1=C(O)CC(CC(C)SCC)CC1=O (stereo not given),,"inconclusive [cytotoxic, partial curve, poor fit]"
CCCCOP(=O)(CCCC)OCCCC,,"inconclusive [cytotoxic, single point]"
CC1CCCCC1NC(=O)Nc1ccccc1 (stereo not given),,"inconclusive [cytotoxic, partial curve, poor fit]"
N#Cc1ccccn1,inactive: -0.449% and inactive: 4.77%,
Nc1cnn(-c2ccccc2)c(=O)c1Cl,inactive: 20.5%,
C[C@]12CC[C@H]3[C@@H](CCC4=CC(=O)CC[C@@H]43)[C@@H]1CC[C@@H]2O,,"inconclusive [cytotoxic, partial curve]"
Nc1ccc(Cc2ccc(N)cc2)cc1,,"inconclusive [cytotoxic, partial curve, poor fit]"
ClC(Cl)C(Cl)Cl,inactive: 0.239%,
ClC(Cl)c1ccccc1,inactive: 4.95% and inactive: 0.497%,
CC(C1CC1)C(O)(Cn1cncn1)c1ccc(Cl)cc1 (stereo not given),,"inconclusive [cytotoxic, partial curve]"
COc1cc(CC(C)N)c(OC)cc1Br (stereo not given),,"inconclusive [cytotoxic, partial curve]"
Cc1ccc(-c2nc3ccc(C)cn3c2CC(=O)N(C)C)cc1,,"inconclusive [cytotoxic, partial curve, poor fit]"
C[C@]1(O)CC[C@H]2[C@@H]3CCC4=CC(=O)CC[C@]4(C)[C@@]3(F)[C@@H](O)C[C@@]21C,,"inconclusive [cytotoxic, partial curve, poor fit]"
Nc1ncc([N+](=O)[O-])s1,inactive: 0.802% and inactive: 3.01%,
CN(C)C1CCCCC1,,"inconclusive [rising, partial curve, poor fit]"
O=C(Cl)c1ccc(Cl)cc1,,"inconclusive [cytotoxic, single point]"

SMILES,max response,Potency
CCCCCBr,,"inconclusive [cytotoxic, single point]"
NC(=O)c1ccc(N)nc1,,"inconclusive [cytotoxic, partial curve]"
COc1ccc(OC)c(C=O)c1,,"inconclusive [cytotoxic, single point]"
CCCCCl,inactive: 1.53%,
Cc1coc2c1CCC(C)C2 (stereo not given),inactive: 15.4%,
NC(=S)C(N)=S,inactive: 4.8%,
N#Cc1c(Cl)cccc1Cl,inactive: 18.9%,
CCOP(=S)(OCC)SCS(=O)(=O)CC,,"inconclusive [rising, single point]"
CC(C)(C)NCC(O)c1ccccc1Cl (stereo not given),inactive: 4.08%,
O=c1[nH]c2ccccc2n1C1CCNCC1,inactive: 2.11%,
c1cc[c]([Sb]([c]2ccccc2)[c]2ccccc2)cc1,,active: 54.9 µM
Clc1ccc2ccccc2c1,,"inconclusive [cytotoxic, single point]"
CN1COCN(Cc2cnc(Cl)s2)/C1=N\[N+](=O)[O-],inactive: 7.06%,
Clc1cc(Cl)c(-c2cc(Cl)c(Cl)cc2Cl)cc1Cl,inactive: 1.25%,
CCCCc1ccc(O)cc1,,active: 15.5 µM
CCC1CCC(=O)O1 (stereo not given),inactive: 8.21%,
O=c1[nH]c2ccccc2c(=O)o1,inactive: -0.172%,"inconclusive [cytotoxic, single point]"
CCN(CC)Cc1nccn1-c1ccc([N+](=O)[O-])cc1C(=O)c1ccccc1Cl,inactive: -11.1%,
COc1cc2c(cc1OC)[C@@]13CCN4CC5=CCO[C@H]6CC(=O)N2[C@H]1[C@H]6[C@H]5C[C@H]43,,"inconclusive [cytotoxic, partial curve]"
